Data on 104 molecules can be found in PubChem BioAssay AID1347073 (National Center for Advancing Translational Sciences (NCATS), 2019).

The structures appear in SMILES notation. The whole screen tested about 45,000 compounds, of which about 200 (0.44%) were called active. Roughly 7% stayed inconclusive and do not appear here. Calls come from the whole dose curve; as a rule, active = well fitted activation curve with a large enough effect; inconclusive = small, poorly fitted or top-dose-only effect; inactive = no such curve, though single readings can be large or run the other way. The list shows a part of the results.

The experiment is described as follows: qHTS of TDP-43 Inhibitors: NCGC Sytravon Library Screen. Note: 0% is about no effect; nearly all actives have a fitted effect of over 55% in size. The conditions noted are these: yeast TDP-43 toxicity rescue, BacTiter-Glo growth, 24 h; series mostly up to 46.1 µM; growth rescue (activation): at the top concentration. In outline: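 TDP-43-expressing yeast, pregrown in raffinose, seeded at OD600 0.02 in galactose medium with compound for 24 hr at 30 deg C. Growth read by BacTiter-Glo luminescence, so rescue of toxicity appears as activation.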
Background: Quantitative high-throughput screening tests each substance at several concentrations.
Turning to `COc1ccccc1NC(=O)Nc1nc(C(N)Cc2ccc(Cl)cc2)cs1` (centres undefined), the “growth rescue (activation)” value was inactive: 12%. Regarding `Cc1cc(C)n2nc(C(=O)NCc3ccco3)cc2n1`, the “growth rescue (activation)” value was inactive: 12.3%. As to `CCn1nnnc1SCC(=O)Nc1ccc(N(C)C)cc1`, the “growth rescue (activation)” value is inactive: -2.37%.

With `Oc1ccc(-c2ccccc2)cc1CN1CCCCCC1`, the “growth rescue (activation)” value is inactive: -10.4%. As to `CCc1ccccc1N1C(=O)c2ccccc2S1(=O)=O`, the “growth rescue (activation)” value was inactive: -7.58%. The value for `CCOC(=O)c1sc2nc(C)nc(Nc3ccccc3)c2c1C` was inactive: 5.23%.

Turning to `CCN(CC(=O)NCc1ccc(F)cc1)C(=O)c1oc2ccccc2c1C`, the “growth rescue (activation)” value was inactive: 16.3%. The value for `NS(=O)(=O)c1cccc(NC(=O)COC(=O)C2(c3cccc(F)c3)CCCC2)c1` was inactive: -7.79%.

For the molecule `COC(=O)c1cc(OCC(=O)Nc2ccc3c(c2)CCC3)cc(C(=O)OC)c1`, the “growth rescue (activation)” value was inactive: 2.68%. As for `CC(=O)NC(CC(=O)Nc1nc(-c2ccccc2)c(C(C)=O)s1)c1ccccc1` (centres undefined), the “growth rescue (activation)” value was inactive: -18.8%. Next, `COc1ccccc1/C=N/n1nnnc1N`: inactive: -12.1%; `COc1cccc(N2CCN(CC(=O)Nc3nc(C)c(C(=O)N(C)C)s3)CC2)c1`: inactive: 3.71%. Next, `COc1cc(-c2cc(NC(C)=O)c3ncc(-c4ccc(F)cc4)n3c2)cc(OC)c1OC`: inactive: 9.51%.

On to `COc1ccc(CN2CCN(C(=O)CC(C)C)CC2)c(OC)c1OC`, for which the “growth rescue (activation)” value is inactive: -1.35%. The value for `CCCOc1ccccc1/C=C(\C#N)C(=O)Nc1cccnc1` was inactive: 23.5%; that for `CC(C)(C)NC(=O)C(=O)NCCC1=CCCCC1` was inactive: 8.6%.

`CCN(CC)CCNC(=O)/C(=C/c1cn(C)c2ccccc12)NC(=O)c1ccc(OC)c(OC)c1`: the “growth rescue (activation)” value was inactive: 4.8%. On to `CN(CC(=O)OCC(=O)c1c(N)n(C)c(=O)n(C)c1=O)S(=O)(=O)c1ccc(Cl)cc1`, for which the “growth rescue (activation)” value is inactive: 10.5%.

Regarding `Cc1ccc2nc(-c3cccc(NC(=O)CSc4ccc(Cl)cc4)c3)oc2c1`, the “growth rescue (activation)” value is inactive: 1.38%.

With `CCN(c1cccc(C)c1)S(=O)(=O)c1cccc2nsnc12`, the “growth rescue (activation)” value was inactive: 25.5%.

Consider `Cc1cc(C(=O)CN2C(=O)NC(C)(CC(C)C)C2=O)c(C)n1-c1ccc2c(c1)OCO2` (centres undefined), for which the “growth rescue (activation)” value was inactive: -34.7%. Next, `O=C(CNc1ccc2ccccc2c1)N/N=C/C=C/c1cccc([N+](=O)[O-])c1`: inactive: -3.35%; `O=C(COC(=O)c1ccc(Br)cc1)NC1CCCC1`: inactive: 1.15%.

As for `Cc1ccc(/C=N/Nc2ccc(C(=O)O)cc2)o1`, the “growth rescue (activation)” value was inactive: -0.423%.

For the molecule `COc1ccccc1NC(=O)CCC(=O)c1ccc(-c2ccccc2)cc1`, the “growth rescue (activation)” value is inactive: -2.13%. Next, `COc1cccc(CC(NC(C)=O)C(=O)NC2CCN(S(=O)(=O)c3ccc(F)cc3)CC2)c1OC` (centres undefined): inactive: 8.65%; `CC(=O)Nc1cc(C(=O)NCc2ccco2)ccc1Sc1ccc(C)cc1`: inactive: -29.7%.

In the case of `CCc1nnc(SCc2cccc(Cl)c2)c2cc3sccc3n12`, the “growth rescue (activation)” value was inactive: 2.34%. The value for `COc1cc(C2C(C#N)=C(N)Oc3c2ccc2ccccc32)ccc1OCC(=O)Nc1ccc(C)cc1` (centres undefined) was inactive: 10.9%; that for `C=CC[n+]1c(-c2ccc(Cl)cc2Cl)csc1Nc1ccc(NC(C)=O)cc1` was inactive: -41.3%. The value for `CCCC(=O)Nc1cccc(NC(=S)NC(=O)C(C)Oc2ccc(Cl)cc2Cl)c1` (centres undefined) was inactive: 27%.

Consider `COc1ccc(C(C)(C)C)cc1S(=O)(=O)n1ccnc1C`, for which the “growth rescue (activation)” value is inactive: 29.9%. For `CNC(=O)CSc1nnc(-c2ccc3c(c2)OCO3)n1C`, the “growth rescue (activation)” value was inactive: -7.68%. The value for `O=C(c1cccs1)N(Cc1cc2ccccc2[nH]c1=O)CC1CCCO1` (centres undefined) was inactive: -0.588%. Next, `COc1ccc(N2CCN(C(=O)[C@H](C)NC(=O)c3ccccc3Cl)CC2)cc1`: inactive: -7.34%; `Cc1nc2sc(C(c3cccc(F)c3)N3CC(C)OC(C)C3)c(O)n2n1` (centres undefined): inactive: 23.8%. Next, `O=C1c2cccc3c(O)ccc(c23)C(=O)N1c1ccc(Cl)cc1`: inactive: -27.1%.

Turning to `O=C(Nc1ccccc1)N(CCN1CCOCC1)Cc1ccccc1F`, the “growth rescue (activation)” value is inactive: 6.55%. The value for `COc1ccc2c(c1OC)C(=O)N1c3ccccc3C(=O)N(c3ccc(F)cc3)C21` (centres undefined) was inactive: 13.6%; that for `OCCC1CN(Cc2ccc(C(F)(F)F)cc2)CCN1Cc1ccccc1` (centres undefined) was inactive: 12.5%; that for `CC1(C(=O)O)CCCN1C(=O)c1ccccc1OC(F)(F)F` (centres undefined) was inactive: -0.661%. For the molecule `C[C@]12CC[C@H](O)CC1=CCC1C2CC[C@@]2(C)C1CC[C@@H]2NC(=O)[C@@H](N)Cc1cnc[nH]1` (some centres undefined), the “growth rescue (activation)” value is inactive: -11.8%. The value for `O=C(NCc1cccs1)c1csc([C@@H]2C[C@H](O)[C@@H](CO)O2)n1` was inactive: 0.917%. For the molecule `Cc1[nH]nc(SCC(=O)N2CCOCC2)c1[N+](=O)[O-]`, the “growth rescue (activation)” value was inactive: -12.2%.

On to `CC(N)c1csc(NC(=O)Nc2cccc(C(F)(F)F)c2)n1` (centres undefined), for which the “growth rescue (activation)” value was inactive: 2.26%. The value for `CC(=O)N1CCC(N(CCN2CCOCC2)C(=S)Nc2ccccc2C)CC1` was inactive: 7.77%. The value for `O=C(Nc1cccc(C(F)(F)F)c1)c1ccc2sc([C@H]3C[C@H](O)[C@@H](CO)O3)nc2c1` was inactive: 4.38%; that for `CCN(CC)c1ccc(/C=N/NC(=O)c2ccccn2)cc1` was inactive: 7.82%; that for `COc1ccc(-c2[nH]ncc2-c2cscn2)c(O)c1` was inactive: -6.61%. The value for `CCn1cnc2c1c(=O)n(Cc1cccc([N+](=O)[O-])c1)c(=O)n2Cc1ccccc1` was inactive: 26.9%; that for `COc1ccc2nc(SCC(=O)NC3CCCc4ccccc43)[nH]c2c1` (centres undefined) was inactive: 21.4%; that for `CNc1c(NC(=O)C2CCC(C)CC2)c(=O)oc2ccccc12` (centres undefined) was inactive: 5.33%.

Regarding `Cc1cc(OC(C)C(=O)Nc2cccnc2)ccc1Cl` (centres undefined), the “growth rescue (activation)” value is inactive: 4.9%. The value for `O=C(COC(=O)COc1ccc(Cl)cc1)NC1CCCCCC1` was inactive: 18.1%; that for `Cc1cccc(NC(=O)COc2ccc(Br)cc2/C=N/O)c1` was inactive: -29%; that for `COc1ccc(OC)c(/C(C)=N/Nc2ccc(C(=O)O)cc2)c1` was inactive: 16.7%.

For the molecule `O=C(NCCc1ccc(O)cc1)c1ccc(Cl)cc1`, the “growth rescue (activation)” value was inactive: 10%. The value for `Oc1c(Br)cc(Br)c(/C=N/n2c(-c3ccccc3)n[nH]c2=S)c1Br` was inactive: -91.4%; that for `O=C(N[C@@H](Cc1ccccc1)C(=O)NCCc1c[nH]c2ccccc12)c1ccco1` was inactive: -0.256%.

For `COc1ccc(-c2nc(-c3cccc([N+](=O)[O-])c3O)cc(=O)o2)cc1OC`, the “growth rescue (activation)” value is inactive: -1.89%. For the molecule `Cc1ccc(NC(=O)CN2C(=O)c3cccnc3Sc3ccccc32)c(Br)c1`, the “growth rescue (activation)” value is inactive: 29.2%.

Regarding `COc1ccc2c(c1)-c1nc(NC(=O)c3cccc(Br)c3)sc1CC2`, the “growth rescue (activation)” value was inactive: 15%. Take `CCOC(=O)C1CCCN(C(=O)c2ccc(N(C)C)cc2)CC1` (centres undefined): the “growth rescue (activation)” value was inactive: 10.3%. The value for `N=C1SC(c2ccccc2)C(=O)N1c1ncc(Cc2ccccc2)s1` (centres undefined) was inactive: 13%.

As for `Cc1sc2ncnc(SCC(=O)N3c4ccccc4Sc4ccc(Cl)cc43)c2c1C`, the “growth rescue (activation)” value was inactive: 16.7%. Consider `Oc1ccc(/C=N/n2c(COc3ccccc3)n[nH]c2=S)cc1O`, for which the “growth rescue (activation)” value is inactive: 7.65%. As to `COc1ccc2c(c1)c(=O)oc1c(C)c(OCc3cc(C(=O)O)oc3C)ccc12`, the “growth rescue (activation)” value was inactive: 1.72%. Next, `COc1ccc(C(=O)N2CCC(C(=O)Nc3ccc(C)cc3)CC2)cc1`: inactive: 5.47%; `CC(=O)N1CCN(c2ccc(NC(=O)C(c3ccccc3)c3ccccc3)cc2)CC1`: inactive: 10%. Take `CCOC(=O)CN1C(=O)CN(c2ccc(C)c(C)c2)C1=O`: the “growth rescue (activation)” value is inactive: 7.65%.

With `COc1ccc(-n2nc(C(=O)NCC(=O)N3CCN(c4cccc(Cl)c4)CC3)c3ccccc3c2=O)c(OC)c1`, the “growth rescue (activation)” value is inactive: 11.1%. As for `O=C(Nc1ccc(F)cc1)Nc1cccnc1Cl`, the “growth rescue (activation)” value is inactive: 12.6%.

With `COc1ccc(-c2cnc3c(NC=O)cc(-c4ccccc4)cn23)cc1OC`, the “growth rescue (activation)” value was inactive: 5.37%. Next, `Cc1ccc(C(=O)O)cc1NS(=O)(=O)c1ccc2c(c1)oc(=O)n2C`: inactive: 7.05%. Next, `CCOC(=O)Cn1c(=O)c2c(nc3n2CCCCN3c2ccc(OCC)cc2)n(C)c1=O`: inactive: 15.9%; `CSCC[C@H](NC(=O)OC(C)(C)C)C(=O)N/N=C/c1cc2ccc(C)cc2nc1Cl`: inactive: 5.84%. Consider `COc1ccc(N2Cc3ccccc3C2=NC(=O)c2ccc(C)cc2)cc1OC`, for which the “growth rescue (activation)” value is inactive: 1.21%. The value for `O=C(O)c1cc(C(=O)O)cc(-c2ccc(/C=c3/sc4nc5ccccc5n4c3=O)o2)c1` was inactive: 5.23%; that for `CCNC(=S)Nc1cc(OC)c(NC(=O)c2ccco2)cc1OC` was inactive: 5.04%; that for `Nc1nc(-c2ccccc2)c(N=Nc2ccc(Cl)cc2)s1` was inactive: -3.57%.

Consider `O=C(O)CN1C(c2ccccc2O)Nc2ccc(Br)cc2C1c1ccccc1` (centres undefined), for which the “growth rescue (activation)” value is inactive: 2.23%. Next, `NNC(=S)NCc1ccc2c(c1)OCO2`: inactive: 7.75%; `COc1cc(NC(=O)c2cnc(NCc3ccccc3)nc2C)cc(OC)c1OC`: inactive: -3.72%. In the case of `COc1ccc(CNC(=O)N2CCc3nc(Nc4cc(OC)c(OC)c(OC)c4)ncc3C2)cc1`, the “growth rescue (activation)” value was inactive: 14.3%.

As to `CCOC(=O)Cc1csc(SCc2cc(=O)oc3cc(O)ccc23)n1`, the “growth rescue (activation)” value was inactive: 2.23%.

Regarding `CN(CC(=O)Nc1ccccc1Cl)C(=O)c1cc(=O)[nH]c2ccccc12`, the “growth rescue (activation)” value is inactive: -1.27%. Consider `Cc1cc(-c2nn(C)c(=O)c3ccccc23)ccc1CNC(=O)NC1CCCCC1`, for which the “growth rescue (activation)” value is inactive: -4.37%.

On to `CN(C)S(=O)(=O)c1cccc(NC(=O)COC(=O)c2cc(-c3cccc(Br)c3)nc3ccccc23)c1`, for which the “growth rescue (activation)” value was inactive: 17.2%. The value for `CCCCCCn1c(=O)c(Cc2ccccc2)c(O)c2ccccc21` was inactive: -0.364%; that for `COc1ccc(C(=O)N2CCC2(C)C(=O)NC(C)C)c(OC)c1` (centres undefined) was inactive: 5.12%.

As to `CCN(CC(=O)Nc1ccc2c(c1)OCCO2)CC(=O)Nc1ccc(C)c(S(=O)(=O)N(C)C)c1`, the “growth rescue (activation)” value was inactive: 30%.

On to `CCOC(=O)CC(NC(=O)c1cccc2c1C(=O)N(Cc1cccnc1)C2)c1ccc(OC(C)C)cc1` (centres undefined), for which the “growth rescue (activation)” value was inactive: 14.5%. The value for `CCOC(=O)c1cnc2c(c(C)nn2CC)c1NCCN1CCOCC1` was inactive: 0.929%; that for `COc1ccc(NC(=O)CSc2nnc(NC(=O)C3CCC3)s2)c(OC)c1` was inactive: -0.842%; that for `Cc1cccc(/C=N/NC(=O)c2cccc(NC(=O)c3ccccc3)c2)n1` was inactive: 11.9%.

Take `N#C/C(=N\Nc1ccc(Cl)cc1)C(=N)N1CCCCCC1`: the “growth rescue (activation)” value is inactive: 11.2%. Next, `C/C(N)=C(/C#N)C(=O)COC(=O)CNS(=O)(=O)c1ccc2ccccc2c1`: inactive: -2.23%; `Cc1ccc(S(=O)(=O)NC(C(=O)N2CCN(S(=O)(=O)c3cccc(F)c3)CC2)C(C)C)cc1` (centres undefined): inactive: 11.1%. Next, `O=C(c1cc(S(=O)(=O)N2CCOCC2)ccc1Cl)N1CCc2ccccc2C1`: inactive: 28.9%; `CCc1c(C)nc2c(-c3ccccc3OC)c(C)[nH]n2c1=O`: inactive: -2.14%. Next, `O=C1NCCCC1C(=O)N/N=C/c1ccccc1[N+](=O)[O-]` (centres undefined): inactive: -0.194%; `CCn1c(CNC(=O)Cc2ccc(OC)cc2)nnc1SCC(=O)Nc1ccc(C(=O)O)cc1`: inactive: 2.36%. `CN(C)S(=O)(=O)c1ccc(Cl)c(NC(=O)c2ccncc2)c1`: the “growth rescue (activation)” value was inactive: -0.558%. `CCn1ccnc1CN(C)Cc1cn(C)nc1-c1ccccc1F`: the “growth rescue (activation)” value was inactive: 11.1%.
